Experimental data reported in PubChem BioAssay AID463173 (ICCB-Longwood Screening Facility, Harvard Medical School, 2010).
Screen size: about 52,000 compounds; about 1,700 (3.3%) were called active. Rule as the data show it: active = survival mostly below about 52% (no sharp cut-off); inactive = mostly above about 56%. The list shows a part of the results.

Tested on: Wild type
Assay: growth inhibition of S. aureus wild type versus tarO mutant, primary screen, teichoic acid synthesis inhibitors, RN4220, OD600 (AID 463173)
Settings: S. aureus RN4220 wild type/DeltatarO growth, OD600, 18 h, hits give low values, screened at 18.75 µg/mL (by protocol)

SMILES	survival
COc1ccc(C(=O)Nc2cc(C(F)(F)F)ccc2N2CCN(c3ccccc3)CC2)cc1OC	inactive: 73%
CCC(=O)Nc1nnc(S(=O)(=O)N(C)Cc2ccccc2)s1	inactive: 86%
CCOc1ccccc1NC(=O)c1cccc2c1C(=O)N(C1CCCCC1)C2	inactive: 80%
COc1cccc(NC(=O)Cn2c(=O)n(-c3ccc(CC(=O)NCC4CCCO4)cc3)c(=O)c3ccccc32)c1 (stereo not given)	inactive: 103%
CCOc1ccc(C(=O)OCc2cc(=O)n3nc(C4CCCCC4)sc3n2)cc1	inactive: 67%
CSc1ncc(Cl)c(C(=O)N(Cc2ccccc2Cl)C2CCS(=O)(=O)C2)n1 (stereo not given)	inactive: 113%
Cc1cc(C)cc(NC(=O)NCCn2nnc3cc(S(=O)(=O)N(C)C)ccc32)c1	inactive: 111%
CC1Cc2ccccc2N1C(=O)CSc1nnc(-c2ccccc2)o1 (stereo not given)	inactive: 98%
Cc1ccc(C)c(NC(=O)CSc2cn(CC(=O)N3CCCC3)c3ccccc23)c1	inactive: 101%
CCCN1C(=O)C(NC(=O)c2ccccc2OC)(C(F)(F)F)C(C(=O)OC)=C1C (stereo not given)	inactive: 78%
O=C(NCC1CCCCC1)C1CCCN1C(=O)NC1CCCCC1 (stereo not given)	inactive: 106%
CCOc1ccccc1C1C(C(=O)Nc2ccccc2OC)=C(C)Nc2nc3ccccc3n21 (stereo not given)	inactive: 68%
Cc1ccc2nc(NC(=O)c3cc(=O)c4cc(C)c(C)cc4o3)sc2c1	inactive: 78%
CCOc1ccc(NC(=O)Cc2csc(COc3cccc(C)c3)n2)cc1	inactive: 91%
CSc1ccc(CNC(=O)CCn2ccc3cc(S(=O)(=O)N4CCCC4)ccc32)cc1	inactive: 73%
O=c1[nH]c(=O)n(CCC2=CCCCC2)c(O)c1/C=C1/C=CC=N1	inactive: 107%
COc1ccccc1CNC(=O)c1ccc(C)c(-n2cnc3cccnc32)c1	inactive: 68%
C=CCn1c(=O)/c(=C2/Sc3ccccc3N2CC)s/c1=C1/C(=O)NN=C1C	inactive: 70%
CCc1nnc2c3ccccc3nc(N3CCN(c4ccc(C)cc4C)CC3)n12	inactive: 74%
CCOc1ccc(NC(=O)Cn2c(C)ccc(C#N)c2=O)cc1	inactive: 140%
O=C(NCCc1csc(-c2cccnc2)n1)c1cccc(C(F)(F)F)c1	inactive: 73%
COc1ccc(CN2C(=O)C(NC(=O)c3ccc(C)cc3)(C(F)(F)F)N=C2c2ccccc2)cc1 (stereo not given)	inactive: 79%
COc1ccc(-c2nn(C)c3sc(C(=O)N4CCN(c5cccc(C)c5C)CC4)cc23)cc1OC	inactive: 77%

SMILES	survival
COc1ccc(C(=O)N/N=C2/SCC(=O)N2C)c(OC)c1	inactive: 104%
Cc1cc(Br)ccc1NC(=O)c1cc2c(s1)-c1ccccc1SC2	inactive: 78%
O=C(CCCn1c(=O)c2cccn2c2cccnc21)NCCc1ccc(Cl)cc1	inactive: 70%
CCOC(=O)N1CCc2c(sc3c2c(=O)n(-c2ccc(Cl)cc2)c(=O)n3CC(=O)c2ccc(F)cc2)C1	inactive: 91%
COc1ccc(NS(=O)(=O)c2nnc(NC(=O)c3ccccc3F)s2)cc1	inactive: 81%
COc1ccccc1NC(=O)CSc1nc2c(oc3ccccc32)c(=O)n1-c1ccc(C)cc1	inactive: 104%
CCOC(=O)Nc1nnc(-c2ccccc2)s1	inactive: 126%
CC(C(=O)N(C(C)C)C(C)C)N1CCN(C)CC1 (stereo not given)	inactive: 93%
COc1ccc(-n2ccnc(NCCc3ccc(S(N)(=O)=O)cc3)c2=O)cc1	inactive: 53%
COc1ncnc(Cl)c1N	inactive: 100%
COc1cc(/C=C/c2nc(C#N)c(NC3CCCCC3)o2)cc(OC)c1OC	inactive: 70%
O=C(/C=C/c1cn(CC(O)CN2CCCCCC2)c2ccccc12)c1ccccc1 (stereo not given)	inactive: 67%
Cc1ccc(CNc2nc3c(S(=O)(=O)c4ccccc4)nnn3c3ccsc23)cc1	inactive: 98%
CCNC(=O)CCSc1nnc(-c2ccc(O)cc2)o1	inactive: 85%
COc1cccc(CNC(=O)Nc2cc(C(=O)NCc3cccc(F)c3)ccc2N2CCCC2)c1	inactive: 54%
CCC(Oc1ccc(F)cc1)C(=O)Nc1cc(-c2ccc(C)cc2)no1 (stereo not given)	inactive: 64%
CCN(CC)c1ccc(NC(=O)c2cc(CN3CCCC3)on2)c(C)c1	inactive: 73%
CCOc1cc(CNC(=O)c2ccc(NC(=O)c3nsc4ccccc34)cc2)ccc1OC	inactive: 99%
Cn1c(=O)c2ccccc2n2c(CCC(=O)N3CCN(c4cccc(Cl)c4)CC3)nnc12	inactive: 84%
CCOc1ccc(NC(=O)CC2C(=O)N(c3cccc(OC)c3)C(=O)N2C2CCCCC2)cc1 (stereo not given)	inactive: 80%
CCN1CCN(c2csc3ccc(Cl)cc3c2=O)CC1	inactive: 99%
Cc1cccc(NC(=O)CSc2nc(-c3cccs3)cc(C(F)(F)F)c2C#N)c1	inactive: 93%
CC(=O)N1CCN(CCN2C(=O)C3C4c5ccccc5C(c5ccccc54)C3C2=O)CC1 (stereo not given)	inactive: 103%

SMILES	survival
COc1ccc(Cl)cc1NC(=O)C(C)n1nnc2sc3c(c2c1=O)CCCC3 (stereo not given)	inactive: 78%
COc1ccc2c(C)c(CC(=O)NCCc3ccccc3)c(=O)oc2c1OC	inactive: 86%
CC1(C)CC(=O)c2cc(C(=O)NC(C)(C)C)c(=O)n(-c3ccccc3)c2C1	inactive: 111%
Cc1cc(C)cc(N2C(=O)CC(c3ccc(C(F)(F)F)cc3)C3=C2COC3=O)c1 (stereo not given)	inactive: 80%
COc1ccccc1C(=O)Nc1cc(-c2cccc(Br)c2)nn1-c1ccccc1	inactive: 115%
CCOc1ccc(NC(=O)Cn2nnc(C(=O)OC)c2C(=O)OC)cc1	inactive: 84%
Cc1ccc(C(=O)NCC(=O)OCc2cc(=O)n3nc(C4CCCCC4)sc3n2)cc1	inactive: 68%
COc1ccc(Cn2c(SCC(=O)NCc3ccccc3)nc3ccccc32)cc1	inactive: 128%
Cc1cc(C)n2nc(-c3ccccc3)cc2n1	inactive: 116%
Cc1ccc2c(c1)C(c1ccc(F)cc1)N(C(=O)C(C)C)CC(=O)N2 (stereo not given)	inactive: 95%
COc1ccc(C(=O)NC2(C(F)(F)F)C(=O)NC(C)=C2C#N)cc1 (stereo not given)	inactive: 79%
O=c1oc2ccc3ccccc3c2cc1-c1nnc(Nc2ccccc2)s1	inactive: 71%
CCc1cccc(NC(=O)Cn2nc(CC)n3c(cc4cc(C)ccc43)c2=O)c1	inactive: 76%
Cc1ccc(CCNC(=O)c2sc3ncccc3c2-n2cccc2)cc1	inactive: 101%
COc1cc(NC(=O)c2nc3cc(C)c(C)cc3n(C)c2=O)cc(OC)c1OC	inactive: 77%
COc1cccc(NC(=O)CSc2nc(O)c(C/C=C/c3ccccc3)c(=O)[nH]2)c1	inactive: 71%
COc1ccc(N2CCN(S(=O)(=O)c3ccc(-c4cc(C(F)(F)F)on4)s3)CC2)cc1	inactive: 64%
Cc1cc(S(=O)(=O)Nc2cccc(-c3ccc(N4CCOCC4)nn3)c2)c(C)cc1Cl	inactive: 59%
CC(=O)Nc1ccc(OCC(O)Cn2ccnc2)cc1 (stereo not given)	inactive: 119%
CCC(=O)Nc1cc(C(=O)NCc2ccc(C)cc2)ccc1S(=O)(=O)c1ccc(C)cc1	inactive: 113%
CCc1cccc(C)c1Nc1c(-c2ccc(N(C)C)cc2)nc2ncccn12	inactive: 134%
Cc1cccc(OCc2ccc(-c3nc(C#N)c(N4CCN(c5ccccc5)CC4)o3)o2)c1	inactive: 132%
Cc1ccc(C)c(CN2C(=O)c3ccccc3Sc3ccc(C(=O)NCc4ccco4)cc32)c1	active: -1%

SMILES	survival
Cc1cc(C)c2oc(C(=O)Nc3c(C(=O)c4ccc(F)cc4)oc4ccccc34)cc(=O)c2c1	inactive: 118%
CC1CCC(NC(=O)C2(C)Cc3ccccc3C(=O)N2Cc2ccccc2Cl)CC1 (stereo not given)	inactive: 37%
CCN(CC)c1ccc(NC(=O)Cn2c(C)c3cnn(-c4ccccc4)c(=O)c3c2C)c(C)c1	inactive: 91%
CCC(C(=O)N1CCN(c2ccccn2)CC1)c1ccccc1 (stereo not given)	inactive: 115%
COC(=O)c1c(-c2cccs2)csc1NC(=O)c1cc(OC)cc(OC)c1	inactive: 79%
Cc1ccc(CNC(=O)C(CC(C)C)N2Cc3ccccc3C2=O)cc1 (stereo not given)	inactive: 136%
O=C(NCCSc1c(-c2ccc(Br)cc2)[nH]c2ccccc12)c1ccc(S(=O)(=O)N2CCOCC2)cc1	inactive: 84%
CCC(C)(C)C(=O)Nc1nnc(COC)s1	inactive: 122%
Clc1cccc(-n2ncc3c(NCCCc4ccccc4)ncnc32)c1	inactive: 69%
Cc1cc(C)cc(NC(=O)C(Cc2ccccc2)N2Cc3ccccc3C2=O)c1 (stereo not given)	inactive: 72%
CCN(C(=O)Cn1nc(Cc2cccnc2)c2ccccc2c1=O)c1cc(C)ccc1C	inactive: 83%
Cc1ccccc1C(=O)Nc1nnc(S(=O)(=O)N2CCCc3ccccc32)s1	inactive: 97%
Cc1ccc(-n2c(=O)c3sccc3n(Cc3cc(=O)n4ccccc4n3)c2=O)cc1	inactive: 73%
COc1ccc(C(=O)N2CCC(C(=O)Nc3ccc(OC)cc3OC)CC2)cc1	inactive: 77%
Cc1cccc(-c2cc(NC(=O)COc3ccccc3F)n(-c3ccccc3)n2)c1	inactive: 91%
Cc1nnsc1C(=O)Oc1ccccc1Cl	inactive: 88%
O=C1C(c2ccc(C(F)(F)F)cc2)=C(Nc2ccc(Cl)cc2)c2ccccc21	inactive: 111%
COc1cc(N(C(=O)Cn2nnc3ccccc32)C(C(=O)NCC2CCCO2)c2cccn2C)ccc1-n1cnnn1 (stereo not given)	inactive: 105%
CCn1c(C(=O)Nc2cc(C)cc(C)c2)cc2sc(Cl)cc21	inactive: 119%
COc1ccc(C(=O)N=c2sc3cc(Cl)ccc3n2C)cc1	inactive: 70%
Cc1ccc(NC(=O)CSc2nnc(-c3cc4occc4n3C)n2-c2ccccc2C)cc1F	inactive: 68%
